Test results as given in PubChem BioAssay AID1625 (Sanford-Burnham Center for Chemical Genomics, 2009).
Where “and” joins values, the source holds several entries; their conditions need not be identical. Equal values may be shown once. The list shows a part of the results. Further columns of the screen follow, without active or inactive calls. The list favours compounds with an active or inconclusive main result.

Assay: up-regulation of insulin promoter-GFP reporter – imaging, high-content screening, mouse beta cells (AID 1625);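 also: total cells summed across four imaged fields per well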
Conditions: MIN6 insulin promoter-GFP reporter, measured here: cytotoxicity, nuclei count, at 5 µM

Row | SMILES | cell count
1 | CCC(c1nnnn1C(C)(C)C)N(Cc1ccco1)Cc1cc2cccc(C)c2[nH]c1=O (stereo unspecified) | 455 cells
2 | CSc1c(C#N)c(N)nc2sc(C(=O)c3ccc(Cl)c(Cl)c3)c(N)c12 | 870 cells
3 | COC(=O)c1oc2c(c1C)C1(CCC2)SCCS1 | 379 cells
4 | CCCCC1=CC2=C(c3ccco3)C(=O)C(C)(OC(=O)c3ccc(OC)cc3)C(=O)C2=CN1CC(C)C (stereo unspecified) | 610 cells
5 | CC(=O)c1c(C)[nH]c(C(=O)NCc2ccccn2)c1C | 425 cells
6 | CC#CC[N+](C)(C)CCCCCCCCCC | 295 cells
7 | CCCNC(=O)N1CCC(C(=O)c2ccc(Cl)cc2)CC1 | 1420 cells
8 | CCN1CC=C2C(C#N)=C(N)C(C#N)(C#N)[C@H](c3cccc(OC)c3OC)[C@H]2C1 | 1090 cells
9 | NC(=O)c1cc2ccc(O)cc2oc1=NCc1ccccc1 | 1130 cells
10 | Nc1c(C(=O)c2ccc(Cl)cc2)sc2nsc(SCCN3CCOCC3)c12 | 1030 cells
11 | COCc1nnc(NC(=O)c2ccc(Cl)cc2[N+](=O)[O-])s1 | 484 cells
12 | O=C(N/N=C/c1ccccn1)c1cc(-c2ccc(Br)cc2)nc2ccccc12 | 488 cells
13 | O=C1C=CC(O)(c2cc(=O)c3c(O)cc(O)cc3o2)C=C1 | 237 cells
14 | C=CCN1C(=O)/C(=C/c2ccc(N(C)C)cc2)S/C1=N\c1nnc(CC)s1 | 835 cells
15 | N#Cc1cccc(NC(=O)CSc2ccc3c4c(cccc24)C(=O)c2ccccc2-3)c1 | 914 cells
16 | CCOC(=O)N1CCC(NC(=O)C2CCCN(Cc3nc(-c4cccc(Cl)c4)oc3C)C2)CC1 (stereo unspecified) | 344 cells
17 | C(=N\Nc1nc2ccccc2[nH]1)/c1ccccn1 | 487 cells
18 | COc1ccc(-c2cn(-c3ccccc3)c3[n+]2CCS3)cc1 | 347 cells and 304 cells
19 | N#C/C(=C/c1ccc(N2CCOCC2)o1)c1ccc(Br)cc1 | 1120 cells
20 | CC(C)C1S/C(=N/N=C/c2ccco2)NC1=O (stereo unspecified) | 1250 cells
21 | CCCc1nc2oc(C(=O)c3ccccc3)c(N)c2c2c1COC(C)(C)C2 | 293 cells
22 | CC(C)CC(=O)NC1(C(F)(F)F)C(=O)N(CC(C)C)C2=C1C(=O)CC(C)(C)C2 (stereo unspecified) | 296 cells
23 | O=C(Nc1ccc(C2CCCCC2)cc1)C1CCCN(c2ncccn2)C1 (stereo unspecified) | 1080 cells
24 | O=[N+]([O-])c1ccc(-c2ccc(/C=N/Nc3nc(N4CCCCC4)nc(N4CCCCC4)n3)o2)cc1 | 1270 cells
25 | CC#CC[N+](C)(C)CCCCCCCCCCCC | 208 cells
26 | CC(C)N1CCc2c(sc(NC(=O)c3ccc(S(=O)(=O)N4CCc5ccccc54)cc3)c2C(N)=O)C1 | 1030 cells

Row | SMILES | cell count
27 | O=C(c1cc(NC(=O)C23CC4CC(CC(C4)C2)C3)cc(NC(=O)C23CC4CC(CC(C4)C2)C3)c1)N1CCCCC1 | 383 cells
28 | CCCSc1nc(O)c(C2OC(=O)c3c2ccc(OC)c3OC)c(=O)n1-c1ccccc1 (stereo unspecified) | 328 cells
29 | CC(=O)Nc1sc(/C(C#N)=C/c2ccc(Cl)c(Cl)c2)nc1-c1ccc(C)cc1 | 1310 cells
30 | CC(C)NC(=O)/C(C#N)=C/c1ccc(N(C)C)o1 | 987 cells
31 | COc1cc(/C=C(\C#N)c2nc3ccccc3o2)ccc1O | 1000 cells
32 | COc1ccc(OCCn2cc(/C(N)=N/O)c3ccccc32)cc1 | 1370 cells
33 | CC(=O)c1cc(NC(=O)c2ccc(Cl)cc2)c(=O)oc1/C=C/N(C)C | 1990 cells
34 | Nc1nonc1C(=O)NCCNCc1cc(Br)ccc1OCc1ccc(F)cc1 | 415 cells
35 | COc1ccc(N(CCN2C(=O)c3ccccc3C2=O)C(=O)c2cccc([N+](=O)[O-])c2)cc1 | 1440 cells
36 | CCC(C)(C)c1ccc(OCCCC[n+]2ccc(C)cc2)c(C(C)(C)CC)c1 | 224 cells
37 | NC(=O)CC[C@@H]1NC(=O)[C@@H]2CCCN2C(=O)c2cc([N+](=O)[O-])cc(F)c2NCCC[C@@H](C(N)=O)NC1=O | 455 cells
38 | Cc1cccn2c(=O)c(/C=C3\SC(=S)N(CC(C)C)C3=O)c(NCCCOC(C)C)nc12 | 877 cells
39 | Oc1c(CN2CCCCC2)cc(COCc2ccccc2)c2cccnc12 | 460 cells
40 | Cc1cc(NC(=O)/C(C#N)=C/c2ccc(-c3ccc(SC(F)F)cc3)o2)n(-c2ccccc2)n1 | 1460 cells
41 | Cc1ccc(C(=O)NCCn2c(N)c(C#N)c3nc4ccccc4nc32)cc1 | 1250 cells
42 | Cc1nnc(NC(=O)c2sc3nc(-c4cccs4)cc(C(F)(F)F)c3c2N)s1 | 1710 cells
43 | COc1ccc(OC)c(NC(=O)C2CC(=O)N(c3ccccc3)C2)c1 (stereo unspecified) | 327 cells
44 | Cc1cc(C)cc(N(CC(=O)N2CCn3c2nc2ccccc23)S(=O)(=O)c2c(C)noc2C)c1 | 468 cells
45 | COc1cc(N=Nc2cccc(S(N)(=O)=O)c2)c2ccccc2c1N | 904 cells
46 | CC(=O)Nc1sc2c(c1-c1nc3ccccc3s1)CCN(C(C)C)C2 | 479 cells
47 | CC(C)CN=C(NS(=O)(=O)c1ccccc1)C(Cl)(Cl)Cl | 464 cells
48 | CC(=O)C1=C(c2ccc(Br)cc2)C(=O)c2ccccc2C1=O | 497 cells
49 | Cc1cc(C)cc(N(CC(=O)N2CC=C(c3ccccc3)CC2)S(=O)(=O)c2c(C)noc2C)c1 | 404 cells
50 | CCCCCCc1cc2cc(-c3nnc(-c4cc(OC)c(OC)c(OC)c4)o3)c(=O)oc2cc1O | 632 cells
51 | O=C(CN1CCN(Cc2ccccc2)C1=O)NCCCN1CCOCC1 | 472 cells
52 | C(=C\c1ccccc1)/CN1CCN(c2ncnc3c2oc2ccccc23)CC1 | 280 cells

Row | SMILES | cell count
53 | O=C(CCSc1nnc(-c2ccccc2)o1)N1CCOCC1 | 499 cells
54 | Cc1cc(C)n(-c2ccc(OCC(=O)O)nn2)n1 | 978 cells
55 | COC(=O)c1[nH]c2cccc(Cl)c2c1NC(=O)CN(C)C1CCCCC1 | 950 cells
56 | c1ccc2c(c1)CCN(c1ncnc3c1[nH]c1ccccc13)C2 | 489 cells
57 | CC1(C)CC(N2CCN(c3ccccc3)CC2)=CC(=[N+]2CCCC2)C1 | 230 cells
58 | COc1nnc(-c2ccc(N3CCCCC3)c(NC(=O)C3CCCCC3)c2)c2ccccc12 | 469 cells
59 | N=c1n(CC(=O)c2ccc([N+](=O)[O-])cc2)c2ccccc2n1Cc1ccc(Cl)cc1 | 478 cells
60 | CCc1nc2c(n1O)CCc1nonc1-2 | 493 cells
61 | CCOC(=O)CC1C(=O)NCCN1c1nc2ccc(C)cn2c(=O)c1/C=C1\SC(=S)N(CC(C)C)C1=O (stereo unspecified) | 1100 cells
62 | COc1nc(-c2ccccc2)c2c(c1C#N)CC(C)(C)OC2 | 442 cells
63 | COCCN1C(=O)/C(=C/c2ccc(N3CCCC3)cc2)SC1=S | 1520 cells
64 | CCCc1cc(=O)[nH]c(SCC(=O)NCCCC(=O)OCC)n1 | 1050 cells
65 | N#C/C(=C/c1ccc(N2CCCCC2)o1)C(=O)Nc1ccc(Cl)cc1 | 1600 cells
66 | CCCN1C(=O)/C(=C/c2c(N3CCNC(=O)C3CC(=O)OC)nc3c(C)cccn3c2=O)SC1=S (stereo unspecified) | 1290 cells
67 | CC[n+]1c(/C=C2\C=C(C)CC(C)(C)C2)sc2ccccc21 | 260 cells
68 | CCOc1ccc(/C=N/OCC(=O)NC(c2ccccc2)c2ccccc2)cc1 | 380 cells
69 | COCCn1c(SCC(=O)N2CCc3ccccc32)nc2c(c1=O)SC(C)C2 (stereo unspecified) | 465 cells
70 | O=[N+]([O-])c1ccc(N/N=C/c2c[nH]c3ccccc23)cc1 | 1200 cells
71 | CCN(CC)S(=O)(=O)c1cc(NC(=O)Cn2ncc(Cl)c(Cl)c2=O)ccc1C | 335 cells
72 | COc1cc2cc(C)c3nnc(SCC(=O)Nc4cc(C)on4)n3c2cc1OC | 1130 cells
73 | CCN(CC)c1ccc2cc(-c3nnc(-c4ccncc4)o3)c(=O)oc2c1 | 1300 cells
74 | COc1cccc(NC(=O)N2CCN(c3nnnn3-c3ccccc3)CC2)c1 | 1200 cells
75 | N#Cc1c(C(F)(F)F)cc(-c2ccccc2)nc1SCc1nc(N)nc(N2CCOCC2)n1 | 1280 cells
76 | CC(=O)c1c(C)n([O-])c2cc(F)c(F)cc2[n+]1=O | 478 cells
77 | CCCN(CCC)c1ccc(/C=C/c2ccc3cc(OCC)ccc3n2)cc1 | 943 cells
78 | CCN(CC)c1ccc2cc(-c3nnc(-c4ccccc4)o3)c(=O)oc2c1 | 1050 cells

Row | SMILES | cell count
79 | COc1cccc(CNCCc2c[nH]c3ccccc23)c1OCc1ccccc1F | 327 cells
80 | CN(C)CCn1c2ccccc2c2nc3ccc([N+](=O)[O-])cc3cc21 | 486 cells
81 | O=c1[nH]c(/C=C/c2ccccc2OC(F)F)nc2c1cnn2-c1ccccc1 | 1150 cells
82 | CC(=O)Nc1ccccc1OCC(=O)c1cc(C)n(Cc2cccs2)c1C | 338 cells
83 | COc1ccc(C(=O)/C=C/C(=O)N(CC(=O)NC2CCCCC2)Cc2ccccc2)c(O)c1 | 384 cells
84 | Oc1ccccc1N=Nc1ccccc1O | 497 cells
85 | COc1ccc(OCC(=O)Nc2ccc(S(=O)(=O)Nc3cc(C)nc(C)n3)cc2)cc1 | 779 cells
86 | CCn1c(/C=C/N(C)c2ccccc2)[n+](CC)c2ccc(Cl)cc21 | 390 cells
87 | N#Cc1ccc(-c2ccc(Cl)cc2)nc1SCC(=O)c1cccc(Cl)c1 | 826 cells
88 | Cc1cnc(C(=O)Nc2cccc3cccnc23)cn1 | 444 cells
89 | CCOCCn1c(CN2CCC(Cc3ccccc3)CC2)nc2c1c(=O)n(C)c(=O)n2C | 413 cells
90 | N#C/C(=C/c1ccc(-c2cc(C(=O)O)cc(C(=O)O)c2)o1)c1nc2ccccc2s1 | 1120 cells
91 | CCS(=O)(=O)N1Cc2ccccc2CC1C(=O)OCC(=O)Nc1ccc(C)cc1 (stereo unspecified) | 1410 cells
92 | CNc1ccc(Br)cc(C(=O)/C=C/c2cc(OC)ccc2OC)c1=O | 378 cells
93 | Nc1cccc2c1C(=O)N(C(=O)c1cccc(S(=O)(=O)N3CCCC3)c1)C2=O | 875 cells
94 | O=C1C=C(Nc2ccc(O)cc2)CC(c2ccco2)C1 (stereo unspecified) | 1040 cells
95 | Cn1nc(C(C)(C)C)cc1C(=O)NCc1ccc(N2CCCC2=O)cc1 | 405 cells
96 | COc1ccc(-n2c(-c3ccc(Br)cc3)c[n+]3c2CCC3)cc1 | 337 cells
97 | CN(C)c1ccc(/C=C/C(O)=C2/C(=O)N(C)C3(C)CC2c2ccccc2O3)cc1 (stereo unspecified) | 815 cells
98 | CC(=O)Nc1ccc(N2CCc3c(C)c(C#N)c4nc5ccccc5n4c32)cc1 | 1580 cells
99 | CN(C)C(=O)C12CCC(C)(c3nc4ccccc4nc31)C2(C)C (stereo unspecified) | 969 cells
100 | Cc1ccc(C)c(NC(=O)C(C)CC2COCCO2)c1 (stereo unspecified) | 1460 cells
101 | COc1ccccc1N1CCN(C(=O)CSc2nnc3n2C(C)(C)Cc2ccccc2-3)CC1 | 496 cells
